Laboratory results reported in paper doi:10.1101/560110 (bioRxiv, 2019).

How the values were obtained:
[1] = target: the molecule itself; experiment: thioflavin T aggregation assay
[2] = target: recombinant human tau, full length (tau 2N4R, 441 aa) (human, UniProt P10636-8 1-441); experiment: thioflavin T aggregation assay

B1: recombinant human tau fragment encoding […] (domain or fragment)
chain: not shown
B1: binds [1]; binds [2].
